Results are given in words; binding and its absence hold for the method and conditions named. Binding seen in cells or lysates may run through a third protein. Some entries that bind do so weakly or less than the wild type. For part of these data: Sequences can lack the tags named with a protein.

Amino acid sequences for entries named in this document (tags omitted). A change or cut given only in a name is not applied to a line headed by its entry.
UniProt Q92769: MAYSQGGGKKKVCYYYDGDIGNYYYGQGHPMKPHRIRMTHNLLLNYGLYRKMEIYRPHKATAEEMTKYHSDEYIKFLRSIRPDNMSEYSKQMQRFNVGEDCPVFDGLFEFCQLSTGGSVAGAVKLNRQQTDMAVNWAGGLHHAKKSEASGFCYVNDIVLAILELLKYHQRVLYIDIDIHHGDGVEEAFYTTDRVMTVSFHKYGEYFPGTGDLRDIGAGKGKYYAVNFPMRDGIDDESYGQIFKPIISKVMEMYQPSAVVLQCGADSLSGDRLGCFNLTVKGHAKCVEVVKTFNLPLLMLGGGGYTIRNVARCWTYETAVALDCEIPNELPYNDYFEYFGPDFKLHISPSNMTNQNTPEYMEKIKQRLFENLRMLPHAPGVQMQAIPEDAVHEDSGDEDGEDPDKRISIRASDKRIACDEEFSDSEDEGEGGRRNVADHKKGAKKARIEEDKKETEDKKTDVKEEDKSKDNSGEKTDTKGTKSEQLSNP
UniProt Q9UBB5: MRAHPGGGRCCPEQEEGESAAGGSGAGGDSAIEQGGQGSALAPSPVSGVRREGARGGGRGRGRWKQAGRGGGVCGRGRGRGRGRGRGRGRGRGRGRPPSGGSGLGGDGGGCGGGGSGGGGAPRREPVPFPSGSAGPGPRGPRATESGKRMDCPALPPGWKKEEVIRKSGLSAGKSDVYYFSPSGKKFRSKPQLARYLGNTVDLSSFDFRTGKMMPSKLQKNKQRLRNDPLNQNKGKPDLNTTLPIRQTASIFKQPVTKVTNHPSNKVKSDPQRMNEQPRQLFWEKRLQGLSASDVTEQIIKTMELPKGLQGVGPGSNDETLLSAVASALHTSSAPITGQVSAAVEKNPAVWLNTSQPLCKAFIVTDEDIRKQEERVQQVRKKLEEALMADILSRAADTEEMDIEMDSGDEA
UniProt Q14839: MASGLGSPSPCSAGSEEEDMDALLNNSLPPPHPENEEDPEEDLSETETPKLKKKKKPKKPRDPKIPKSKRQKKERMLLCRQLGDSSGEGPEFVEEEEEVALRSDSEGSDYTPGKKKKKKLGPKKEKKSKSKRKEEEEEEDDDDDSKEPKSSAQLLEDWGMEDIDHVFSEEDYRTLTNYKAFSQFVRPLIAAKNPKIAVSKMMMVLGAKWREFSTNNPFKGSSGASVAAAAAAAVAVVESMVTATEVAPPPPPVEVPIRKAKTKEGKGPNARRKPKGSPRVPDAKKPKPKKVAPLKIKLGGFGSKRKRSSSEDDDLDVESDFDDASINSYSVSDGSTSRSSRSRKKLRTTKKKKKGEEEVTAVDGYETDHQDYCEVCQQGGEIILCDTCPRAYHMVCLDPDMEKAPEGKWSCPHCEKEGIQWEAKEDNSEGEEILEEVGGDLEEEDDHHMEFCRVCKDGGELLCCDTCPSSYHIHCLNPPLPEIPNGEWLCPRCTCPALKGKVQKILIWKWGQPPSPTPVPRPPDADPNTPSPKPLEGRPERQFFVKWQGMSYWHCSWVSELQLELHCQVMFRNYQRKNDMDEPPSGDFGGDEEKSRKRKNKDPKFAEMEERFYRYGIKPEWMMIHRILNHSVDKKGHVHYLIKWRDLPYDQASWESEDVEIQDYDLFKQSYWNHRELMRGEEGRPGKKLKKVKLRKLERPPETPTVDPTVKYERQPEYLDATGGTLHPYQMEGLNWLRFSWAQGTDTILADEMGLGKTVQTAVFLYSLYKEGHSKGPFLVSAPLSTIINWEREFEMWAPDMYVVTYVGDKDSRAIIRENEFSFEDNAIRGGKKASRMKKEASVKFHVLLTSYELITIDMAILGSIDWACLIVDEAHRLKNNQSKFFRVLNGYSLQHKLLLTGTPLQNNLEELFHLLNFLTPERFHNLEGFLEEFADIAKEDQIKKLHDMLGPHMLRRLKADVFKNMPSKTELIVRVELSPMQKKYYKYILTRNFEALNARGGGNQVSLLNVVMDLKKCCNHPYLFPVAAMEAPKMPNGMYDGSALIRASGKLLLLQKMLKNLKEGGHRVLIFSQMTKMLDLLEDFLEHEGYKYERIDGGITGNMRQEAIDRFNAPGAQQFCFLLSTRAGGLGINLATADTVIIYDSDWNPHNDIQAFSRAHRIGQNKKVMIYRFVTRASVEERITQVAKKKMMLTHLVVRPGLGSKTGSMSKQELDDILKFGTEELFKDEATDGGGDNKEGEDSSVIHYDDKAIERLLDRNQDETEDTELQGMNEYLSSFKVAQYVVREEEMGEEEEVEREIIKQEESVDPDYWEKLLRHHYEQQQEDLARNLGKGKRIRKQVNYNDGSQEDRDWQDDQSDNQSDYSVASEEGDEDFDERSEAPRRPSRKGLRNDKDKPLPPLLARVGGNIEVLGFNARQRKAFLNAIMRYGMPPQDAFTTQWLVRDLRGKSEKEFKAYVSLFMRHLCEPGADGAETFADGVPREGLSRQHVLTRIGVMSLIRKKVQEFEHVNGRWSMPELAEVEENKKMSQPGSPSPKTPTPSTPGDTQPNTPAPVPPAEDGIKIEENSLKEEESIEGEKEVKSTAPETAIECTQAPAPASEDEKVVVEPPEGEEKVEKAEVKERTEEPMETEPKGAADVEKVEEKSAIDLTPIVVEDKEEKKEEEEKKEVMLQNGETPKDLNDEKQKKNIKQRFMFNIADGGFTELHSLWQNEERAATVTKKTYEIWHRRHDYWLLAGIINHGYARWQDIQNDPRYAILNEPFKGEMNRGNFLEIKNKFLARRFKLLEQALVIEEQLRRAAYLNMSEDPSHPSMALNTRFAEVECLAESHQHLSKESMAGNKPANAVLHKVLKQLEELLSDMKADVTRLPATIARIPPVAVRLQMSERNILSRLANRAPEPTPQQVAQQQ
UniProt Q09028: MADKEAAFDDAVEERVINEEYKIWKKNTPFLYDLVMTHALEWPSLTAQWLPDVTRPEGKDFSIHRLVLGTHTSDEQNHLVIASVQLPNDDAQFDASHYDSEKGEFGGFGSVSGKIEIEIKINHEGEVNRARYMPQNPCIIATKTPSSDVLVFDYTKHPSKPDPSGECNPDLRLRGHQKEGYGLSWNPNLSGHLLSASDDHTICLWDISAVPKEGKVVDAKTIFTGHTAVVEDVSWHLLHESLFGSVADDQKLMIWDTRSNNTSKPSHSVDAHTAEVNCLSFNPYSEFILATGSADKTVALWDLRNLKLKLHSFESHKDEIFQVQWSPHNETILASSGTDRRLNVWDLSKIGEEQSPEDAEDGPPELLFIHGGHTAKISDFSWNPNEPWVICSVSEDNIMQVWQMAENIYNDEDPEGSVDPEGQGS
UniProt Q13547: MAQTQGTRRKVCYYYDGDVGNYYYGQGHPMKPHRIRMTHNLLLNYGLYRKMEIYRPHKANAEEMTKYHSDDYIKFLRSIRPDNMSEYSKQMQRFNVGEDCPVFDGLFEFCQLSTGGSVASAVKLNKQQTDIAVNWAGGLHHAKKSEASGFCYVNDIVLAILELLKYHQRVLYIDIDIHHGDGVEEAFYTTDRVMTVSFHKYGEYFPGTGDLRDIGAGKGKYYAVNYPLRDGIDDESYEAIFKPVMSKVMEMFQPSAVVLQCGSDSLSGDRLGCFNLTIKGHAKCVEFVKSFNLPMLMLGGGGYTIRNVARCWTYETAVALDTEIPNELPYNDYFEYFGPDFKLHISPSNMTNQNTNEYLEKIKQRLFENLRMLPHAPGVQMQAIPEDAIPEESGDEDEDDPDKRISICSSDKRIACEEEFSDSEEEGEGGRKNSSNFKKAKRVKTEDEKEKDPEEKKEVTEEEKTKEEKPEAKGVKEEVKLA

Data on 12 molecules can be found in PMC9884267.

The labels stand for the following.
T1: GFP-HMG20A, expressed in HEK293 (Expi293F) cells (human), Q9NP66
T1 chain: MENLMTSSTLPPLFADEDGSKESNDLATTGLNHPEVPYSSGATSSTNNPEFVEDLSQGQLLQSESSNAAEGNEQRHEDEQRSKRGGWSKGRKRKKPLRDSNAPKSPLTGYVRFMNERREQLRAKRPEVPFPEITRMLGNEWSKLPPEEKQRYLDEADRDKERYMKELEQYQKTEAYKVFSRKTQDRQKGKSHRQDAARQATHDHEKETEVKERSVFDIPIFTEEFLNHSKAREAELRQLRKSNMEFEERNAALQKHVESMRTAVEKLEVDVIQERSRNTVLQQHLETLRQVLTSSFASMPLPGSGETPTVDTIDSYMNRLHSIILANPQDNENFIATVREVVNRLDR

B1: HMG20B (protein, UniProt Q9P0W2 1-317)
chain: MSHGPKQPGAAAAPAGGKAPGQHGGFVVTVKQERGEGPRAGEKGSHEEEPVKKRGWPKGKKRKKILPNGPKAPVTGYVRFLNERREQIRTRHPDLPFPEITKMLGAEWSKLQPTEKQRYLDEAEREKQQYMKELRAYQQSEAYKMCTEKIQEKKIKKEDSSSGLMNTLLNGHKGGDCDGFSTFDVPIFTEEFLDQNKAREAELRRLRKMNVAFEEQNAVLQRHTQSMSSARERLEQELALEERRTLALQQQLQAVRQALTASFASLPVPGTGETPTLGTLDFYMARLHGAIERDPAQHEKLIVRIKEILAQVASEHL
B2: zinc finger protein ZNF512B (protein, UniProt Q96KM6 1-892)
chain: MTDPFCVGGRRLPGSSKSGPGKDGSRKEVRLPMLHDPPKMGMPVVRGGQTVPGQAPLCFDPGSPASDKTEGKKKGRPKAENQALRDIPLSLMNDWKDEFKAHSRVKCPNSGCWLEFPSIYGLKYHYQRCQGGAISDRLAFPCPFCEAAFTSKTQLEKHRIWNHMDRPLPASKPGPISRPVTISRPVGVSKPIGVSKPVTIGKPVGVSKPIGISKPVSVGRPMPVTKAIPVTRPVPVTKPVTVSRPMPVTKAMPVTKPITVTKSVPVTKPVPVTKPITVTKLVTVTKPVPVTKPVTVSRPIVVSKPVTVSRPIAISRHTPPCKMVLLTRSENKAPRATGRNSGKKRAADSLDTCPIPPKQARPENGEYGPSSMGQSSAFQLSADTSSGSLSPGSRPSGGMEALKAAGPASPPEEDPERTKHRRKQKTPKKFTGEQPSISGTFGLKGLVKAEDKARVHRSKKQEGPGPEDARKKVPAAPITVSKEAPAPVAHPAPGGPEEQWQRAIHERGEAVCPTCNVVTRKTLVGLKKHMEVCQKLQDALKCQHCRKQFKSKAGLNYHTMAEHSAKPSDAEASEGGEQEERERLRKVLKQMGRLRCPQEGCGAAFSSLMGYQYHQRRCGKPPCEVDSPSFPCTHCGKTYRSKAGHDYHVRSEHTAPPPEEPTDKSPEAEDPLGVERTPSGRVRRTSAQVAVFHLQEIAEDELARDWTKRRMKDDLVPETARLNYTRPGLPTLNPQLLEAWKNEVKEKGHVNCPNDCCEAIYSSVSGLKAHLASCSKGAHLAGKYRCLLCPKEFSSESGVKYHILKTHAENWFRTSADPPPKHRSQDSLVPKKEKKKNLAGGKKRGRKPKERTPEEPVAKLPPRRDDWPPGCRDKGARGSTGRKVGVSKAPEK
B3: FLAG-MTA2, O94776 1-668 (protein)
chain: MAANMYRVGDYVYFENSSSNPYLVRRIEELNKTANGNVEAKVVCLFRRRDISSSLNSLADSNAREFEEESKQPGVSEQQRHQLKHRELFLSRQFESLPATHIRGKCSVTLLNETDILSQYLEKEDCFFYSLVFDPVQKTLLADQGEIRVGCKYQAEIPDRLVEGESDNRNQQKMEMKVWDPDNPLTDRQIDQFLVVARAVGTFARALDCSSSIRQPSLHMSAAAASRDITLFHAMDTLQRNGYDLAKAMSTLVPQGGPVLCRDEMEEWSASEAMLFEEALEKYGKDFNDIRQDFLPWKSLASIVQFYYMWKTTDRYIQQKRLKAAEADSKLKQVYIPTYTKPNPNQIISVGSKPGMNGAGFQKGLTCESCHTTQSAQWYAWGPPNMQCRLCASCWIYWKKYGGLKTPTQLEGATRGTTEPHSRGHLSRPEAQSLSPYTTSANRAKLLAKNRQTFLLQTTKLTRLARRMCRDLLQPRRAARRPYAPINANAIKAECSIRLPKAAKTPLKIHPLVRLPLATIVKDLVAQAPLKPKTPRGTKTPINRNQLSQNRGLGGIMVKRAYETMAGAGVPFSANGRPLASGIRSSSQPAAKRQKLNPADAPNPVVFVATKDTRALRKALTHLEMRRAARRPNLPLKVKPTLIAVRPPVPLPAPSHPASTNEPIVLED

For one assay, the target named is GFP-HMG20A (High Mobility Group 20A), stably expressed in HeLa Kyoto cells (human) (UniProt Q9NP66). Briefly: co-IP; mononucleosome IP: MNase-digested chromatin of HeLaK cells stably expressing the GFP fusion, GFP-TRAP beads overnight at 4 °C, washes with 150 mM NaCl, immunoblot of endogenous proteins.
Conditions: not given
(In western blotting, separated proteins are transferred to a membrane and probed.)
As to HDAC2 (from UniProt Q92769 1-488), the binding entry is “binds”. “MBD2, endogenous in HeLa Kyoto cells (from UniProt Q9UBB5 1-411)”: the binding result is “binds”.

Regarding B1, the binding result is reported as “binds”.

Consider B2, for which the binding result was “binds”.

The target in a further assay is T1, GFP-HMG20A, expressed in HEK293 …. Put plainly: co-IP; HEK Expi293F cells co-transfected with GFP-HMG20A (or its deletions) and FLAG- or HA-tagged NuRD subunits; lysis in 500 mM NaCl with DNase and RNase; capture on GFP nanobody bound to streptavidin beads, elution with biotin, immunoblot with anti-FLAG, anti-HA or anti-GFP. Conditions: remark: other sources report otherwise.
B3: the binding entry was “binds”.

Another assay addresses GFP-HMG20A, expressed in HEK293 (Expi293F) cells (human) (UniProt Q9NP66). The description is as above.
Conditions: not given
For “FLAG-CHD4-middle domain (CHD4 DNA translocase, residues 343-1230) (from UniProt Q14839 343-1230) (domain or fragment)”, the binding entry was “binds”. For the molecule “FLAG-CHD4-N-terminus (CHD4 HMG box, residues 1-355) (from UniProt Q14839 1-355) (domain or fragment)”, the binding entry is “no binding”. Same read-out and setting: in the case of FLAG-RBBP4 (from UniProt Q09028 1-425) it was “no binding”; in that of FLAG-CHD4 (from UniProt Q14839 1-1912), “binds”.

As to “FLAG-CHD4-C-terminus (CHD4 C-terminal domains, residues 1230-1912) (from UniProt Q14839 1230-1912) (domain or fragment)”, the binding result is “no binding”. Take HDAC1-FLAG (from UniProt Q13547 1-482): the binding result is “binds”. The same measure, in the same setting: in the case of HA-MBD2 (from UniProt Q9UBB5 1-411) it was “binds”.
